Source: publication PMC7673785
Results are given in words; binding and its absence hold for the method and conditions named. In cells and extracts the contact can be indirect. Some binding calls cover weakened binding; strength is not graded here.

The chains behind the UniProt entries cited, without tags or fusion partners. Where a name states a change or a piece, a line headed by the entry shows the natural chain unless it says otherwise.
UniProt Q9QZL0: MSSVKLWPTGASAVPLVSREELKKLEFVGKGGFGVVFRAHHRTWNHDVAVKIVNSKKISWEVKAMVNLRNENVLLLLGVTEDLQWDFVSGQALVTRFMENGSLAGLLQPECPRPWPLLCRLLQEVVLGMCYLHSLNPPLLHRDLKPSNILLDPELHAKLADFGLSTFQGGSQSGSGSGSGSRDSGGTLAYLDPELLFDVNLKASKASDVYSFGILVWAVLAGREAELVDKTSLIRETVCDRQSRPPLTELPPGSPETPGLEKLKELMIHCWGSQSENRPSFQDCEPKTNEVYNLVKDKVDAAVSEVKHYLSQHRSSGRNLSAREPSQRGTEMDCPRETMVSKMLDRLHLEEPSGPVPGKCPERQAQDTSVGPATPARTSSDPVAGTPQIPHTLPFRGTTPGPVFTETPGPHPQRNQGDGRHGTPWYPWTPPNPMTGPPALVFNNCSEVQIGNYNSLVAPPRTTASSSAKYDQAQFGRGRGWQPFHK
UniProt Q9Y572: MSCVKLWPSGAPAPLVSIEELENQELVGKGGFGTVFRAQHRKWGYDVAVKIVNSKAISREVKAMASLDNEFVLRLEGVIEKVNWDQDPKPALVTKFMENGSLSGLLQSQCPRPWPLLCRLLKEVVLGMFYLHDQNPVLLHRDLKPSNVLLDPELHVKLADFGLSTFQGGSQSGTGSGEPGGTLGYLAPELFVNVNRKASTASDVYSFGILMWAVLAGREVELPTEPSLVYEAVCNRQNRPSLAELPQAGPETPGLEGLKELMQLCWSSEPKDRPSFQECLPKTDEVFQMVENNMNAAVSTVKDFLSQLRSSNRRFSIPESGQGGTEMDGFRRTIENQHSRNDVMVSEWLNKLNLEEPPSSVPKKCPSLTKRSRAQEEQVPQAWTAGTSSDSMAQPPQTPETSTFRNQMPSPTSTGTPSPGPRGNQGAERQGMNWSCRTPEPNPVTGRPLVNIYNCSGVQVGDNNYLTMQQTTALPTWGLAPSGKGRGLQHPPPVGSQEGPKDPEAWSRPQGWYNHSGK
UniProt Q8BVP5: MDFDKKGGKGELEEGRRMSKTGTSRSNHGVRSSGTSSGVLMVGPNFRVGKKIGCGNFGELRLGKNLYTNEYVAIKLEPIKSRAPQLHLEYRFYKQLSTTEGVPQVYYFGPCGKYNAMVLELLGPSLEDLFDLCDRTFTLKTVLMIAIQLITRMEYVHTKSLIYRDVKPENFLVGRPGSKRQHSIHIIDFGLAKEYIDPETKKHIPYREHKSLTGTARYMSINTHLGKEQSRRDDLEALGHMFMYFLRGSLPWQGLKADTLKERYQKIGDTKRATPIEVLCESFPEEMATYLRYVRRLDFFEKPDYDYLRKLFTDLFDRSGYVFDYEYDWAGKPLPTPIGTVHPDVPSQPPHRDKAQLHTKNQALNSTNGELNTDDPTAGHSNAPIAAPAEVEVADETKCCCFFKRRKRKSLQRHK
UniProt P78368: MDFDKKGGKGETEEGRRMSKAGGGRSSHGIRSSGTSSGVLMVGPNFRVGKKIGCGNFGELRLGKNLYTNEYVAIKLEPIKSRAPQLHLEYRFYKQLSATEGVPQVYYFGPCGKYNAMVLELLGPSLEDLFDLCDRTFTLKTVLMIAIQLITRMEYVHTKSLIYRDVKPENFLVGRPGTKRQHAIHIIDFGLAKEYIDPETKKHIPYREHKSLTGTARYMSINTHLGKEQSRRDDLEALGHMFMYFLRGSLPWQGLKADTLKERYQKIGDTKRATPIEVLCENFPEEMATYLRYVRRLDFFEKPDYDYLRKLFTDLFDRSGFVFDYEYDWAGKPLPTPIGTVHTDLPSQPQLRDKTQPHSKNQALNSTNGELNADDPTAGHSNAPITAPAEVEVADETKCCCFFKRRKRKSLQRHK
UniProt Q13546: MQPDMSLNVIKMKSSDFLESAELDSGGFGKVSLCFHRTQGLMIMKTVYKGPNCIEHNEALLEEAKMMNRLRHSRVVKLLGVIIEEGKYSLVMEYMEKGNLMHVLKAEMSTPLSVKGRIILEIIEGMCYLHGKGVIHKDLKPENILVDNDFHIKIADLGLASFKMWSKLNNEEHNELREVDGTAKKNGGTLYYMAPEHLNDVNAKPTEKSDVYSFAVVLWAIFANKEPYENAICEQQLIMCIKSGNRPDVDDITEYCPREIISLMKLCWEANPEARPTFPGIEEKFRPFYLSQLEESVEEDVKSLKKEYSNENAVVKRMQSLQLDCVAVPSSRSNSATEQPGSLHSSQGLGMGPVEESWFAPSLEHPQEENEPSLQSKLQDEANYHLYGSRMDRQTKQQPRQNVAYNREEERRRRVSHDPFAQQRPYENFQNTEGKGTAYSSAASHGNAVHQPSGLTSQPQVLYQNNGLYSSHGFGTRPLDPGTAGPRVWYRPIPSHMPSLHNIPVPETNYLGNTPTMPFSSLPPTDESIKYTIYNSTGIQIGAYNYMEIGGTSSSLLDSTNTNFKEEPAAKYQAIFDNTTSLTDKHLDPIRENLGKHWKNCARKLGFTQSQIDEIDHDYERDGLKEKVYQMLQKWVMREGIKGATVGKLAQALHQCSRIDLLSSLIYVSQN

Assays:
[1] = biological target: Flag-RIPK3 (in MEFs) (not stated (human or mouse cDNA cloned)) (UniProt Q9QZL0); assay: co-IP; MEF (Csnk1g2−/−) co-transfected with Myc-CSNK1G2 (WT or K75A) and Flag-RIP3 for 24 hr; extracts precipitated with anti-Flag antibody, western blot for Myc and Flag
[2] = biological target: Flag-RIPK3 (in MEFs) (not stated (human or mouse cDNA cloned)) (UniProt Q9QZL0); assay: co-IP; MEF-Flag-RIPK3 and MEF (Csnk1g2−/−)-Flag-RIPK3 cells treated with the indicated stimuli for 6 hr; extracts precipitated with anti-Flag antibody, western blot for RIPK1 and CSNK1G2
[3] = biological target: HA-3×Flag-RIPK3 (in HeLa-HA-3×Flag-RIPK3 cells) (human) (UniProt Q9Y572); assay: co-IP; HeLa-HA-3×Flag-RIPK3 cells expressing Myc-CSNK1G2 (vector, WT, K75A or S211A/T215A), treated with DMSO or TSZ for 6 hr; extracts precipitated with anti-Flag antibody, western blot; lysis buffer 100 mM Tris-HCl pH 7.4, 100 mM NaCl, 10% glycerol, 1% Triton X-100, 2 mM EDTA; overnight at 4°C
[4] = biological target: CSNK1G2 (endogenous, mouse) (mouse (endogenous in MEF and testis)) (UniProt Q8BVP5); assay: co-IP; testis extracts of 3-month-old wild-type and Csnk1g2 knockout mice (pool of three mice each); CSNK1G2 precipitated with anti-CSNK1G2 antibody, western blot

Myc-tagged wild-type (WT) CSNK1G2 (in Csnk1g2−/− MEFs) (from UniProt Q8BVP5 1-415) (enzyme)
binding [1]: binds

CSNK1G2 (endogenous, mouse) (from UniProt Q8BVP5 1-415) (enzyme)
binding [2]: binds

Myc-CSNK1G2(K75A) (from UniProt P78368 1-415) (enzyme)
binding [3]: no binding

Myc-tagged CSNK1G2 kinase-dead mutant (K75A) (in Csnk1g2−/− MEFs) (from UniProt Q8BVP5 1-415) (enzyme)
binding [1]: no binding

RIPK3 (endogenous, mouse testis) (from UniProt Q9QZL0 1-486) (enzyme)
binding [4]: binds

RIPK1 (endogenous, HeLa) (from UniProt Q13546 1-671) (enzyme)
binding [3]: binds

Myc-tagged human CSNK1G2, wild type (from UniProt P78368 1-415) (enzyme)
binding [3]: binds

Myc-CSNK1G2 (S211A/T215A) (from UniProt P78368 1-415) (enzyme)
binding [3]: no binding
